Usually IC50 stands for the concentration that inhibits the measured activity by half.

From the supplement of paper PMC4967469 come the findings set out here.

Experiment in all cases: Viability of human cancer cell lines after 72 h of drug (GDSC screen)
Compound in one assay: C#Cc1cccc(Nc2ncnc3cc(OC)c(OCCCCCCC(=O)NO)cc23)c1 [CUDC-101]
The note with it: top dose 5.12 µM; top dose inferred. Here is the method: (§1)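 Human cancer cell lines in 384-well plates, medium with 10% serum, drug for 72 h over a 256-fold dose range (nine 2-fold or five 4-fold steps up to the top dose). Adherent lines were fixed and stained with the nucleic acid dye Syto60, suspension lines read with resazurin; signal relative to control wells, capped at 0 and 100%. One two-parameter sigmoid per drug and line, fitted in a mixed model over all curves with the slope shared within a line.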

Compound in the next assay: CC(C)(C)c1cc(NC(=O)Nc2ccc(-c3cn4c(n3)sc3cc(OCCN5CCOCC5)ccc34)cc2)no1 [AC220]
The settings on record: top dose 1.024 µM; top dose inferred. The procedure: as §1

Compound in the next assay: COc1cc(F)c(F)c(Nc2ccc(I)cc2F)c1NS(=O)(=O)C1(C[C@H](O)CO)CC1 [RDEA119]
The settings on record: top dose 5 µM, top dose inferred. The procedure: as §1

Compound in a further assay: Fc1cc(-c2ccnc(Nc3ccc(-n4cnc(N5CCOCC5)n4)cc3)n2)cc(N2CCOCC2)c1 [JNK-9L]
The settings on record: top dose 5.12 µM; top dose inferred. Here is the method:
as §1

Compound in the next assay: NCC(=O)Nc1ccc(-n2nc(C(F)(F)F)cc2-c2ccc3c(ccc4ccccc43)c2)cc1 [OSU-03012]
The note with it: top dose 16 µM; top dose inferred. The procedure:
as §1

Compound in another assay: O=c1[nH]cc(F)c(=O)[nH]1 [5-Fluorouracil]
The settings on record: top dose 32 µM; top dose inferred. The procedure: as §1

Compound in the next assay: OC[C@H](Cc1ccccc1)Nc1nc(Oc2ccc3c(c2)CCC3)nc2c1ncn2Cc1ccc(-c2ccccc2)cc1 [QS11]
The settings on record: top dose 10.24 µM. The procedure: as §1

The IC50 comes from the fitted curve, where viability falls to half of the control; fits outside the tested doses are given as limits. AUC sums up the same curve from the lowest dose to the 256-fold higher top dose; values near 1 show little effect. For part of these data: An inferred top dose was derived from the fitted curves, not read from the paper. For part of these data: An entry number marks a drug with two screens in the source, which often give different values.

With NCI-H23 (lung adenocarcinoma, adherent), the AUC with CUDC-101 stood at 0.815; in the assay with AC220 it was 0.968; with RDEA119 (screen: GDSC drug entry 1014), 0.885; with RDEA119 (screen: GDSC drug entry 1526), 0.791; with JNK-9L, 0.747; with OSU-03012, 0.877. For the same cell line, the AUC with 5-Fluorouracil is 0.89; in the assay with QS11, 0.987. The 50% inhibitory concentration (IC50) in the assay with CUDC-101 is 2.78 µM; with AC220, > 1.02 µM; with RDEA119 (screen: GDSC drug entry 1014), > 5 µM; with RDEA119 (screen: GDSC drug entry 1526), 2.23 µM; with JNK-9L, 1.63 µM; with OSU-03012, 15.8 µM. Moreover, the IC50 with 5-Fluorouracil was > 32 µM; with QS11, > 10.2 µM.
Regarding NCI-H28 (mesothelioma, adherent), the AUC with CUDC-101 worked out at 0.962; with AC220, 0.98; with RDEA119 (screen: GDSC drug entry 1014) it was 0.842; with JNK-9L, 0.553; in the assay with OSU-03012, 0.849; with 5-Fluorouracil, 0.891. For the same cell line, the AUC in the assay with QS11 came out at 0.981. For the same cell line, the IC50 with CUDC-101 is > 5.12 µM; with AC220 it was > 1.02 µM; with RDEA119 (screen: GDSC drug entry 1014), > 5 µM; with JNK-9L it was 0.467 µM; with OSU-03012, > 16 µM; in the assay with 5-Fluorouracil, > 32 µM. In addition, in the assay with QS11, the IC50 was > 10.2 µM.
In the case of “NCI-H64 (small cell lung carcinoma, suspension)”, the AUC in the assay with CUDC-101 is 0.434; with AC220, 0.995; in the assay with RDEA119 (screen: GDSC drug entry 1014), 0.996; in the assay with JNK-9L, 0.581; with OSU-03012, 0.829; in the assay with 5-Fluorouracil, 0.971. Moreover, the AUC with QS11 is 0.939. Also, the IC50 with CUDC-101 was 0.222 µM; with AC220, > 1.02 µM; with RDEA119 (screen: GDSC drug entry 1014) it was > 5 µM; with JNK-9L, 0.505 µM; with OSU-03012 it was 6.67 µM; with 5-Fluorouracil it was > 32 µM. Moreover, the concentration for half-maximal inhibition (IC50) in the assay with QS11 was found to be 10.2 µM.
For the cell line “NCI-H82 (small cell lung carcinoma, suspension)”, the AUC was 0.766 in the assay with CUDC-101; 0.985 with AC220; 0.987 with RDEA119 (screen: GDSC drug entry 1014); 0.981 in the assay with RDEA119 (screen: GDSC drug entry 1526); 0.843 with JNK-9L; 0.933 with OSU-03012. The results for the AUC in the assay with 5-Fluorouracil and with QS11 were 0.71 and 0.985, respectively. Further, the 50% inhibitory concentration (IC50) in the assay with CUDC-101 was 1.8 µM; with AC220, > 1.02 µM; in the assay with RDEA119 (screen: GDSC drug entry 1014) it was > 5 µM; in the assay with RDEA119 (screen: GDSC drug entry 1526), > 5 µM; with JNK-9L, 3.36 µM; with OSU-03012 it was > 16 µM. Further, the values for the half-inhibitory concentration (IC50) with 5-Fluorouracil and with QS11 were 7.54 µM and > 10.2 µM, respectively.
On to “NCI-H209 (small cell lung carcinoma, suspension)”, for which the AUC in the assay with CUDC-101 stood at 0.974; with AC220, 0.925; with RDEA119 (screen: GDSC drug entry 1014), 0.985; with RDEA119 (screen: GDSC drug entry 1526) it was 0.969; with JNK-9L, 0.722; with OSU-03012 it was 0.887. In addition, the AUC with 5-Fluorouracil amounted to 0.976; with QS11, 0.974. Moreover, the 50% inhibitory concentration (IC50) with CUDC-101 is > 5.12 µM; with AC220, > 1.02 µM; with RDEA119 (screen: GDSC drug entry 1014), > 5 µM; with RDEA119 (screen: GDSC drug entry 1526), > 5 µM; with JNK-9L it was 1.44 µM; in the assay with OSU-03012, > 16 µM. For the same cell line, the values for the IC50 in the assay with 5-Fluorouracil and with QS11 were > 32 µM and > 10.2 µM, respectively.
As to “NCI-H211 (small cell lung carcinoma, adherent)”, the AUC with CUDC-101 amounted to 0.395; in the assay with AC220, 0.953; with RDEA119 (screen: GDSC drug entry 1014), 0.965; in the assay with RDEA119 (screen: GDSC drug entry 1526) it was 0.941; in the assay with JNK-9L, 0.667; in the assay with OSU-03012 it was 0.8. Besides, the AUC in the assay with 5-Fluorouracil was determined as 0.878; with QS11, 0.924. Moreover, the half-inhibitory concentration (IC50) in the assay with CUDC-101 was 0.166 µM; with AC220 it was > 1.02 µM; with RDEA119 (screen: GDSC drug entry 1014) it was > 5 µM; with RDEA119 (screen: GDSC drug entry 1526) it was > 5 µM; with JNK-9L, 0.917 µM; with OSU-03012, 7.46 µM. Moreover, the figures for the IC50 with 5-Fluorouracil and in the assay with QS11 were 31.1 µM and > 10.2 µM, respectively.
For the cell line “NCI-H226 (lung squamous cell carcinoma, adherent)”, the AUC was found to be 0.558 with CUDC-101; 0.987 with AC220; 0.957 in the assay with RDEA119 (screen: GDSC drug entry 1014); 0.847 with RDEA119 (screen: GDSC drug entry 1526); 0.667 with JNK-9L; 0.753 with OSU-03012. The values for the AUC with 5-Fluorouracil and with QS11 were 0.769 and 0.967, respectively. Further, the IC50 was 0.465 µM with CUDC-101; > 1.02 µM with AC220; > 5 µM with RDEA119 (screen: GDSC drug entry 1014); 3.97 µM in the assay with RDEA119 (screen: GDSC drug entry 1526); 0.956 µM with JNK-9L; 5.61 µM with OSU-03012. The results for the 50% inhibitory concentration (IC50) with 5-Fluorouracil and in the assay with QS11 were 12.7 µM and > 10.2 µM, respectively.
In the case of “NCI-H292 (lung adenocarcinoma, adherent)”, the AUC with CUDC-101 was determined as 0.293; in the assay with AC220, 0.978; with RDEA119 (screen: GDSC drug entry 1526), 0.408; with JNK-9L, 0.591; in the assay with OSU-03012 it was 0.689; in the assay with 5-Fluorouracil, 0.549. Further, the AUC with QS11 came to 0.889. Further, the half-inhibitory concentration (IC50) with CUDC-101 was 0.0731 µM; with AC220, > 1.02 µM; with RDEA119 (screen: GDSC drug entry 1526), 0.165 µM; with JNK-9L it was 0.602 µM; with OSU-03012 it was 3.84 µM; in the assay with 5-Fluorouracil it was 2.81 µM. In addition, the IC50 in the assay with QS11 is > 10.2 µM.
“NCI-H345 (small cell lung carcinoma, suspension)”: the AUC came to 0.42 in the assay with CUDC-101; 0.99 with AC220; 0.985 with RDEA119 (screen: GDSC drug entry 1014); 0.989 with RDEA119 (screen: GDSC drug entry 1526); 0.852 with JNK-9L; 0.979 with OSU-03012. Further, the results for the AUC with 5-Fluorouracil and with QS11 were 0.97 and 0.972, respectively. Besides, the IC50 is 0.191 µM in the assay with CUDC-101; > 1.02 µM in the assay with AC220; > 5 µM with RDEA119 (screen: GDSC drug entry 1014); > 5 µM with RDEA119 (screen: GDSC drug entry 1526); 4.3 µM in the assay with JNK-9L; > 16 µM in the assay with OSU-03012. Further, the IC50 in the assay with 5-Fluorouracil was > 32 µM; with QS11, > 10.2 µM.
